The target in assay [1] is T1, recombinant extra-cellular domain of human Nectin-4 protein (human, UniProt Q96NY8 32-349).
T1 construct: extracellular domain; Bought protein; also called Human Nectin-4 protein (purchased from Novoprotein Scientific Inc.); the antigen
T1 sequence (looked up): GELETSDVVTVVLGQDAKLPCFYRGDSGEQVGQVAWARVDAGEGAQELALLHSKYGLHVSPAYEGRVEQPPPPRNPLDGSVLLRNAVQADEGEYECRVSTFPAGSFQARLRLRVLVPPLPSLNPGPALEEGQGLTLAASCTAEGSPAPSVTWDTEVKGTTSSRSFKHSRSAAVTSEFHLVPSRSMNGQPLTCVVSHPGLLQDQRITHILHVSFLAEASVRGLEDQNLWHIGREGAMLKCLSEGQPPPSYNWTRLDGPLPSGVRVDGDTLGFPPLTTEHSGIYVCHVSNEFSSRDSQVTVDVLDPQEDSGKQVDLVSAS
Kind of assay: BIAcore (SPR), antibody captured on chip, human Nectin-4 protein injected at 0.391-50 nM. A general note: Surface plasmon resonance follows binding to a sensor surface in real time, without labels.

In assay [2] the target is T1, recombinant extra-cellular domain of …. Kind of assay: BIAcore (SPR), reference Padcev.
The target is the same in assay [3]. The assay is described as follows: BIAcore (SPR), ADC captured on chip, human Nectin-4 protein injected at 0.391-50 nM.

What is called Kd is the concentration at which binding is half-saturated. Usually koff stands for the first-order rate constant of dissociation. By kon is commonly meant a measure of how fast the partners come together.

B1: hH2L1 (antibody, human IgG1, kappa)
heavy: EVQLQESGPGLVKPSETLSLTCTVSGFSLIDYGVSWIRQPPGKGLEWIGVIWGGGKIYYNSVLKSRVTISKDNSKSQVSLKLSSVTAADTAVYYCAKQGGLLFYAMDYWGQGTLVTVSSASTKGPSVFPLAPSSKSTSGGTAALGCLVKDYFPEPVTVSWNSGALTSGVHTFPAVLQSSGLYSLSSVVTVPSSSLGTQTYICNVNHKPSNTKVDKRV[gap - human IgG1 Fc]
light: DIVMTQSPDSLAVSLGERATINCKSSQSLLNTYSQKNYLAWYQQKPGQPPKLLIYFASTRESGVPDRFSGSGSGTDFTLTISSLQAEDVAVYYCQQHYNTPFTFGGGTKVEIKRTVAAPSVFIFPPSDEQLKSGTASVVCLLNNFYPREAKVQWKVDNALQSGNSQESVTEQDSKDSTYSLSSTLTLSKADYEKHKVYACEVTHQGLSSPVTKSFNRGEC
notes: also called anti-Nectin-4 antibody hH2L1; naked antibody
For B1, in assay [1], the Kd was 2.58 nM, the koff stood at 0.00145 s⁻¹ and the kon came to 562000 M⁻¹ s⁻¹.

B2: antibody-drug conjugate 3d (hH2L1 conjugated with drug-containing linker C-3) (antibody, human IgG1, kappa)
heavy: EVQLQESGPGLVKPSETLSLTCTVSGFSLIDYGVSWIRQPPGKGLEWIGVIWGGGKIYYNSVLKSRVTISKDNSKSQVSLKLSSVTAADTAVYYCAKQGGLLFYAMDYWGQGTLVTVSSASTKGPSVFPLAPSSKSTSGGTAALGCLVKDYFPEPVTVSWNSGALTSGVHTFPAVLQSSGLYSLSSVVTVPSSSLGTQTYICNVNHKPSNTKVDKRV[gap - human IgG1 Fc]
light: DIVMTQSPDSLAVSLGERATINCKSSQSLLNTYSQKNYLAWYQQKPGQPPKLLIYFASTRESGVPDRFSGSGSGTDFTLTISSLQAEDVAVYYCQQHYNTPFTFGGGTKVEIKRTVAAPSVFIFPPSDEQLKSGTASVVCLLNNFYPREAKVQWKVDNALQSGNSQESVTEQDSKDSTYSLSSTLTLSKADYEKHKVYACEVTHQGLSSPVTKSFNRGEC
modifications: drug-containing linker C-3 site-specifically conjugated to the reduced disulfide bonds of the antibody, DAR 4.0; the conjugated residues are not numbered; drug-containing linker C-3 site-specifically conjugated to the reduced disulfide bonds of the antibody, maleimide ring opened by hydrolysis (formula Ib), DAR 4.0; the conjugated residues are not numbered
notes: also called ADC 3d; the ADC of interest
For B2, the “fold affinity against Padcev” value in assay [2] was roughly 2 fold. For the same molecule, in assay [3], the Kd amounted to 2.41 nM, the koff worked out at 0.00142 s⁻¹ and the on-rate (kon) was determined as 589000 M⁻¹ s⁻¹.
